# In paper PMC10668032:
# The other results are listed elsewhere or left out. At the low end of the ranking the order means little.
# Biological target: SIX1-Q177R homeodomain (UniProt Q15475)
# Experiment: universal protein binding microarray
# Conditions: Universal all-10-mer PBM (8x60K, AMADID 030236), 300 nM GST-tagged protein, Alexa Fluor 488 anti-GST; buffer, salt, pH and temperature not stated; high values mean tight binding; most listed sequences are background and not binding sites; double strand, one strand shown
row,Sequence,binding signal [E-score]
1,ACTTGGTA,0.0835
2,CATTTCGA,-0.225
3,CTCCGAAC,-0.00335
4,CGCAAATA,-0.156
5,ACCATCAC,0.123
6,GCACTGAA,-0.208
7,AAGAGGCG,-0.193
8,GAAAGGAC,-0.0257
9,CCTAAGGC,-0.0414
10,GAATACTA,-0.236
11,AAACGTAT,-0.224
12,CGTCCTGA,-0.151
13,CTATCTAC,0.0414
14,ATGTTAAT,-0.223
15,CCCGAGGA,0.129
16,ATCAACAC,0.394
17,CATATAGG,0.0431
18,AAACATGG,-0.129
19,CTCGCCCC,0.173
20,CAACCATA,-0.168
21,ATGAGGTA,-0.133
22,AGCATGGA,-0.172
23,GCGGCAAA,-0.113
24,AAAACCGA,-0.0187
25,GTGTCTAA,0.394
26,AGAGCCTC,-0.287

row,Sequence,binding signal [E-score]
1,TGAGGCCA,-0.218
2,TCACTTCA,-0.297
3,CCGTATAG,-0.0761
4,GTGAGGGA,0.0131
5,AATTAAAG,-0.214
6,GGCCCAAC,-0.128
7,ATCGGTCA,-0.137
8,CAGGGGCA,-0.118
9,GCCTGGCC,-0.318
10,TATATGGA,-0.0149
11,AAATCCCA,-0.164
12,ACGCGGCT,-0.12
13,GAGATTCC,-0.191
14,ACCCATTG,0.0294
15,ATTGTTAC,-0.0783
16,CGCGATCC,0.102
17,GCCATCTA,-0.28
18,CTTGGCTC,-0.157
19,TACTACCA,-0.0414
20,AACGATAC,0.142
21,CCTAGCTA,0.0442
22,AGCCTAAT,-0.06
23,CACTGACC,0.0609
24,AAGTCTTA,-0.118
25,AGAGGTAG,-0.0928
26,AGTGCTGC,-0.24

row,Sequence,binding signal [E-score]
1,AACTCCAC,0.0981
2,ACTCTGTG,0.106
3,CGACCCAA,-0.128
4,CCATAATC,-0.0805
5,AATAGGGC,-0.158
6,AGCCGGAC,0.0201
7,GTCAAAAA,-0.0517
8,CCAGGGCG,0.0347
9,GACAATGA,-0.186
10,CTACCTAG,-0.0733
11,GCTTCCCC,0.133
12,CCGAGGAC,0.0693
13,AACAACCC,0.124
14,AACTGGAC,-0.209
15,ATACTTGG,-0.0975
16,CCACCCGG,0.201
17,GCACCAGA,0.181
18,TATGATCA,-0.133
19,ATCGAACA,0.108
20,CCTAACGA,-0.306
21,GAGAGACC,-0.186
22,CAAGTAAG,0.00724
23,AAATGGGG,-0.0278
24,ATCTTGAG,0.00769
25,CTGTCTTA,-0.123
26,AGGTGACC,-0.00822

row,Sequence,binding signal [E-score]
1,TCCTCAAA,-0.0927
2,CGAGTGGA,0.166
3,ACACCGCT,0.466
4,CTCGACGC,-0.0736
5,AATACGAT,0.0826
6,GTCATGAA,-0.0108
7,AACTCCAT,-0.0692
8,ATCTTTAG,-0.0521
9,AGACTAGA,-0.172
10,CCTACAAG,-0.0918
11,CTGTGATA,0.134
12,GTCCTCGA,-0.059
13,CTGGACTA,-0.0852
14,CAGCTGCC,-0.27
15,GGGCATAC,0.0668
16,GAAAGAGA,-0.101
17,CGGGTAAG,0.122
18,AGACGATC,0.0546
19,GAAGCCAA,-0.162
20,AAAGTAAG,-0.189
21,GACACCGA,0.486
22,CCTACCAC,0.103
23,CAATGAGA,-0.134
24,AATAGCAG,-0.0433
25,ACCTGGAT,-0.0312
26,TTGACAAA,-0.208

row,Sequence,binding signal [E-score]
1,TATGACAA,-0.0361
2,CAGCTCTC,-0.217
3,ATACAAAC,-0.00168
4,GCGCCTAC,-0.00798
5,ATAAATAG,-0.125
6,CAGGAGAA,-0.179
7,CAAATAAA,-0.216
8,CCCAAACA,0.208
9,GTAGACTA,-0.176
10,AGGCGTAA,0.02
11,CTCAATGA,-0.215
12,AAGGACAG,-0.0924
13,ATAGTCCG,-0.17
14,GAACGAAC,0.0128
15,GATCGGCA,-0.12
16,CGTCCACG,-0.186
17,CGGCGGAC,0.142
18,AGCATCCT,-0.309
19,ATCCTCCA,0.0133
20,GTTTCTCA,0.103
21,CTGTCGCA,-0.0797
22,CGAAGAAA,-0.114
23,AACGTCGA,-0.183
24,ACGATCTA,0.0591
25,CAAGCAGG,-0.122
26,ACCCCCAT,0.272

row,Sequence,binding signal [E-score]
1,AACCGACA,0.195
2,CTACTGAC,-0.00274
3,ACATGCGA,-0.115
4,AACAGACG,-0.168
5,CATACGGA,-0.156
6,GACTGCGC,-0.138
7,CTAGTGGC,-0.12
8,AAAGGCCT,-0.187
9,ATCAGCGG,-0.0432
10,CGGCCTGC,-0.178
11,CAAGGCGG,0.0319
12,CAGTTTGC,-0.139
13,ATAACTCG,0.0367
14,CATCGAAG,-0.152
15,CGCTTGAG,-0.282
16,GGGTCGTA,0.148
17,CGGTGGAG,0.0117
18,AAAATTAG,-0.0966
19,GATCTAAC,-0.0373
20,CACTTGAC,0.258
21,CCATCGCC,0.0361
22,ATGTAAAG,-0.221
23,ACCACTAC,0.178
24,GCCTAAAA,-0.273
25,CAACTTCC,-0.215
26,CGTTGGAA,0.0366

row,Sequence,binding signal [E-score]
1,CTACCACA,0.154
2,AACATCTC,-0.181
3,GGTTATCA,0.0949
4,CAGTCCAC,-0.165
5,CATAGACG,-0.118
6,ACCTGCCG,0.0491
7,ACATAAAT,-0.0422
8,AATATCCC,0.00434
9,CCCGCGAG,0.109
10,GGCCGGTA,0.0744
11,AAATTGTA,-0.218
12,ACTGCCAC,-0.118
13,CGTGTACA,0.427
14,ACGTCCAC,-0.268
15,ACATTGTG,0.0609
16,ATTGTCAG,0.143
17,AGTGTGTG,0.197
18,AACTTTGC,-0.139
19,AAAAGATG,-0.304
20,ATGTGATA,-0.0133
